The values below come from PMC4274898.

No constants are given. Whether binding was seen depends on the method and setting. Some binding calls cover weakened binding; strength is not graded here.

Assay in all cases: two-hybrid; S. cerevisiae AH109 co-transformed with pGBKT7-ARF (bait) and pGADT7-Aux/IAA (prey); growth on SD/-Ade-His-Leu-Trp against SD/-Leu/-Trp; at least 10 independent colonies; serial dilutions for strength
The target in assay [1] is T1, ARF3 (Arabidopsis thaliana) (UniProt O23661).
T1 sequence: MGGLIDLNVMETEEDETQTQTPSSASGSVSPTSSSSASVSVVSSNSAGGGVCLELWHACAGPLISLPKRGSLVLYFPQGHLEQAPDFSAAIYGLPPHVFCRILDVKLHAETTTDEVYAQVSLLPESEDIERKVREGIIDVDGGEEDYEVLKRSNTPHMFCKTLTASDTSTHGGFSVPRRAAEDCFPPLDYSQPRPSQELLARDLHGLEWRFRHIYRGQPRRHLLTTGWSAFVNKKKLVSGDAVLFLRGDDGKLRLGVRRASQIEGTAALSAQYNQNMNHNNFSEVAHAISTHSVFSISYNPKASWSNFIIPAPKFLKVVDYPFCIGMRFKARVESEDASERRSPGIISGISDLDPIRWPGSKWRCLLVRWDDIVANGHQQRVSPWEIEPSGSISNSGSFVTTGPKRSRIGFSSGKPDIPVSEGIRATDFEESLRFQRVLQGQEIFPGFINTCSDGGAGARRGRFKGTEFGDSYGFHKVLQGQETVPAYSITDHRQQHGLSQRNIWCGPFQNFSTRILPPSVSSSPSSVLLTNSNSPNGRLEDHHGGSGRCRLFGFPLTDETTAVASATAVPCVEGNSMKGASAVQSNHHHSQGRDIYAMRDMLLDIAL

In assay [2] the target is T2, ARF7 (Arabidopsis thaliana) (UniProt P93022).
T2 sequence: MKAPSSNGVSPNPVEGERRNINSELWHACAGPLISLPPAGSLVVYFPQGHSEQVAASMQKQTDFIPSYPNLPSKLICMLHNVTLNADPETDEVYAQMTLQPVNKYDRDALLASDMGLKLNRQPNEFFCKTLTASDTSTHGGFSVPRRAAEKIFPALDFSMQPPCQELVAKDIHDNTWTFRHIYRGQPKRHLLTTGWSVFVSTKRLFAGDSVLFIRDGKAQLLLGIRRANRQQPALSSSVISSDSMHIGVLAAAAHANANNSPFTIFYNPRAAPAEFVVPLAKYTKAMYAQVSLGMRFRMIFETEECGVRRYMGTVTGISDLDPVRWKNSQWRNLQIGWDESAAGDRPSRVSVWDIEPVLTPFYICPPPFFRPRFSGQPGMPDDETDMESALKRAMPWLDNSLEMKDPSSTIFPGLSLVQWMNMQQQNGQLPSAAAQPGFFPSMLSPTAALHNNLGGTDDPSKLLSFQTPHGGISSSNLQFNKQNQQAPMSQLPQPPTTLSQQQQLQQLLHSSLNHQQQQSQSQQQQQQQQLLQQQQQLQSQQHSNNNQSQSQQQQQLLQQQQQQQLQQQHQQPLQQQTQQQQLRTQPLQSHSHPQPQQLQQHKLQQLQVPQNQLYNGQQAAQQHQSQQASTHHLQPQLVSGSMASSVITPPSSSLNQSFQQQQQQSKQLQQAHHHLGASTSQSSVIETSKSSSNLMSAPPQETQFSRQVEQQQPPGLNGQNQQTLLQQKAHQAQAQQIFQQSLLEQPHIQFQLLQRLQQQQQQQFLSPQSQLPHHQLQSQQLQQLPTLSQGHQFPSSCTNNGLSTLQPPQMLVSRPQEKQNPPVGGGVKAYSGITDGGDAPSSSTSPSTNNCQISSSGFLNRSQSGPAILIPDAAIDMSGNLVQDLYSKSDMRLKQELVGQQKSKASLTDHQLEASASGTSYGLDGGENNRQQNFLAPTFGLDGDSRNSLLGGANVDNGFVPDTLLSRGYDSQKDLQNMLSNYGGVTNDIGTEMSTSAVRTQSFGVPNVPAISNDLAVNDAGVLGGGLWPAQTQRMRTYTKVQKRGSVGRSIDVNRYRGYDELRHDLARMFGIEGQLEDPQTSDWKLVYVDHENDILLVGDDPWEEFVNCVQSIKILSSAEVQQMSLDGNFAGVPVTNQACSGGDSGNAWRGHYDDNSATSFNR

The target in assay [3] is T3, ARF4 (Arabidopsis thaliana) (UniProt Q9ZTX9).
T3 sequence: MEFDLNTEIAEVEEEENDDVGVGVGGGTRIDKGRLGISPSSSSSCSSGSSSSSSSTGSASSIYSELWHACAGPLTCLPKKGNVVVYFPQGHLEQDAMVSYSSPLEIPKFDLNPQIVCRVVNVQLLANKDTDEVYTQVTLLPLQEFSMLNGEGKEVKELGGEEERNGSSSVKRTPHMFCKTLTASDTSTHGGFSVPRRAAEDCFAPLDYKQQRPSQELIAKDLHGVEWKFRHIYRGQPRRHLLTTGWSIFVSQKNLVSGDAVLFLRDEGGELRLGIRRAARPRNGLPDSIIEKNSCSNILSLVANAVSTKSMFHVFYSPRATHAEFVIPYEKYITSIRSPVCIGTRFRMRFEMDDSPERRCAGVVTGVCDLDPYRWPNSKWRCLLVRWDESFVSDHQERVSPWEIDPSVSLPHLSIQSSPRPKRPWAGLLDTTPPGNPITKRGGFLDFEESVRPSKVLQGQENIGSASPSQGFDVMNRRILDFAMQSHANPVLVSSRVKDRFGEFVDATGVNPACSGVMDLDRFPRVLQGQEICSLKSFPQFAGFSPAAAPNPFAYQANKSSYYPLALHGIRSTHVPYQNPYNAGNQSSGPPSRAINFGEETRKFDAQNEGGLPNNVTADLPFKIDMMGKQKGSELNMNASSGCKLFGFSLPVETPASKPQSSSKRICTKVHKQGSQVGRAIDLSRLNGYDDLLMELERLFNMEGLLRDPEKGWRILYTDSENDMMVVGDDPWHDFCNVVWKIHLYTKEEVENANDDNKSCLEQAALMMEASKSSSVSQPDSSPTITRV

B1: Aux/IAA19 (protein, UniProt O24409 1-197)
chain: MEKEGLGLEITELRLGLPGRDVAEKMMKKRAFTEMNMTSSGSNSDQCESGVVSSGGDAEKVNDSPAAKSQVVGWPPVCSYRKKNSCKEASTTKVGLGYVKVSMDGVPYLRKMDLGSSQGYDDLAFALDKLFGFRGIGVALKDGDNCEYVTIYEDKDGDWMLAGDVPWGMFLESCKRLRIMKRSDATGFGLQPRGVDE
As for B1, the binding entry is “no binding” in assay [1], “binds” in assay [2] and “binds” in assay [3].

B2: Aux/IAA20 (protein, UniProt O24410 1-175)
chain: MGRGRSSSSSSIESSSKSNPFGASSSTRNLSTDLRLGLSFGTSSGTQYFNGGYGYSVAAPAVEDAEYVAAVEEEEENECNSVGSFYVKVNMEGVPIGRKIDLMSLNGYRDLIRTLDFMFNASILWAEEEDMCNEKSHVLTYADKEGDWMMVGDVPWEMFLSTVRRLKISRANYHY
As for B2, the binding result is “no binding” in assay [1], “binds” in assay [2] and “binds” in assay [3].

B3: Aux/IAA30 (protein, UniProt Q9M1R4 1-172)
chain: MGRGRSSSSSSIESSCKSNPFGVSSSNTRNLSTDLRLGLSFGSSSGQYYNGGDNHEYDGVGAAEEMMIMEEEEQNECNSVGSFYVKVNMEGVPIGRKIDLLSLNGYHDLITTLDYMFNASILWAEEEDMCSEKSHVLTYADKEGDWMMVGDVPWEMFLSSVRRLKISRAYHY
For the molecule B3, the binding result is “no binding” in assay [1], “binds” in assay [2] and “binds” in assay [3].

B4: Aux/IAA27 (protein, UniProt Q9ZSY8 1-305)
chain: MSVSVAAEHDYIGLSEFPTMEATTMSDKTKTRDNNNGLNFKATELRLGLPGSESPERVDSRFLALNKSSCPVSGAKRVFSDAINDSNKWVFSPGSTTATGDVGSGSGPRTSVVKDGKSTTFTKPAVPVKEKKSSATAPASKAQVVGWPPIRSFRKNSMASSQSQKPGNNSETEEAEAKSGPEQPCLYVKVSMEGAPYLRKIDLKTYKSYLELSSALEKMFSCFTIGQFGSHGGCGRDGLNESRLTDLLRGSEYVVTYEDKDSDWMLVGDVPWEMFICSCKKLRIMKSSEAIGLAPRVMEKCRSRN
As to B4, the values for the binding entry in assay [1], in assay [2] and in assay [3] were “no binding”, “binds” and “binds”, respectively.

B5: Aux/IAA29 (protein, UniProt Q93WC4 1-251)
chain: MELDLGLSLSPHKSSKLGFNFDLNKHCAIEGAASCLGTEKLRFEATFGLGNVEENCYMPKQRLFALNGQPNEEDEDPLESESSIVYDDEEENSEVVGWPPVKTCMIKYGSYHHRHIRNHHHCPYHHRGRRITAMNNNISNPTTATVGSSSSSSISSRSSMYVKVKMDGVAIARKVDIKLFNSYESLTNSLITMFTEYEDCDREDTNYTFTFQGKEGDWLLRGDVTWKIFAESVHRISIIRDRPCAYTRCLF
As for B5, the binding entry in assay [1] is recorded as “no binding”; in assay [2], “binds”; in assay [3] it was “binds”.

B6: Aux/IAA28 (protein, UniProt Q9XFM0 1-175)
chain: MEEEKRLELRLAPPCHQFTSNNNINGSKQKSSTKETSFLSNNRVEVAPVVGWPPVRSSRRNLTAQLKEEMKKKESDEEKELYVKINMEGVPIGRKVNLSAYNNYQQLSHAVDQLFSKKDSWDLNRQYTLVYEDTEGDKVLVGDVPWEMFVSTVKRLHVLKTSHAFSLSPRKHGKE
As to B6, the binding result was “no binding” in assay [1], “binds” in assay [2] and “binds” in assay [3].

B7: Aux/IAA2 (protein, UniProt P49678 1-174)
chain: MAYEKVNELNLKDTELCLGLPGRTEKIKEEQEVSCVKSNNKRLFEETRDEEESTPPTKTQIVGWPPVRSSRKNNNSVSYVKVSMDGAPYLRKIDLKTYKNYPELLKALENMFKVMIGEYCEREGYKGSGFVPTYEDKDGDWMLVGDVPWDMFSSSCKRLRIMKGSDAPALDSSL
For the molecule B7, the binding result in assay [1] was “no binding”; in assay [2], “binds”; in assay [3], “binds”.

B8: Aux/IAA16 (protein, UniProt O24407 1-236)
chain: MINFEATELRLGLPGGNHGGEMAGKNNGKRGFSETVDLKLNLSSTAMDSVSKVDLENMKEKVVKPPAKAQVVGWPPVRSFRKNVMSGQKPTTGDATEGNDKTSGSSGATSSASACATVAYVKVSMDGAPYLRKIDLKLYKTYQDLSNALSKMFSSFTIGNYGPQGMKDFMNESKLIDLLNGSDYVPTYEDKDGDWMLVGDVPWEMFVDSCKRIRIMKGSEAIGLAPRALEKCKNRS
With B8, the binding result in assay [1] is “no binding”; in assay [2] it was “binds”; in assay [3], “binds”.

B9: Aux/IAA26 (protein, UniProt Q8LAL2 1-269)
chain: MEGCPRNREIGPKLLDLIPQGRKWYQEDKNNTDQEKKLELRLGPPGGDEEDHSAIKKKNTEIRNIKKETEDKSFHCFNGNHFSPSNKTTSVPHISQKRTAPGPVVGWPPVRSFRKNLASTSSSKLGNESSHGGQINKSDDGEKQVETKKEGMFVKINMDGVPIGRKVDLNAYNSYEQLSFVVDKLFRGLLAAQRDISDGQGEEKPIIGLLDGKGEFTLTYEDNEGDKMLVGDVPWQMFVSSVKRLRVIKSSEISSALTFGCSKQEKMMH
Consider B9, for which the results for the binding entry in assay [1], in assay [2] and in assay [3] were “no binding”, “binds” and “binds”, respectively.

B10: Aux/IAA18 (protein, UniProt O24408 1-267)
chain: MEGYSRNGEISPKLLDLMIPQERRNWFHDEKNSVFKTEEKKLELKLGPPGEEDDDESMIRHMKKEPKDKSILSLAGKYFSPSSTKTTSHKRTAPGPVVGWPPVRSFRKNLASGSSSKLGNDSTTSNGVTLKNQKCDAAAKTTEPKRQGGMFVKINMYGVPIGRKVDLSAHNSYEQLSFTVDKLFRGLLAAQRDFPSSIEDEKPITGLLDGNGEYTLTYEDNEGDKMLVGDVPWQMFVSSVKRLRVIKTSEISSALTYGNGKQEKMRR
For B10, the figures for the binding entry in assay [1], in assay [2] and in assay [3] were “no binding”, “binds” and “binds”, respectively.
